Z-score data for 113 compounds are collected here from PubChem BioAssay AID488969 (Vanderbilt High Throughput Screening Facility, 2010).

Over roughly 110,000 compounds, “z-score” has its median near -0.1; the highest 2% begin near 2. This is one part of the list. The source made the active and inactive calls.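 The calls were made as follows: active = z-score in the third read window above 3 or below -3; inactive = the rest.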

This test deals with Metabotropic glutamate receptor 8 (Rattus norvegicus) (UniProt P70579). In words: rat mGluR8 modulators via GIRK flux, primary screen, cell-based, thallium flux, HTS (AID 488969). As to conditions: HEK293 rat mGluR8, GIRK (G protein-gated inwardly rectifying potassium channel) thallium flux, FluoZin2; at 10 µM; stronger effect = higher value; submaximal glutamate (EC20) added with thallium.
UniProt P70579, sequence (P70579 whole entry, looked up): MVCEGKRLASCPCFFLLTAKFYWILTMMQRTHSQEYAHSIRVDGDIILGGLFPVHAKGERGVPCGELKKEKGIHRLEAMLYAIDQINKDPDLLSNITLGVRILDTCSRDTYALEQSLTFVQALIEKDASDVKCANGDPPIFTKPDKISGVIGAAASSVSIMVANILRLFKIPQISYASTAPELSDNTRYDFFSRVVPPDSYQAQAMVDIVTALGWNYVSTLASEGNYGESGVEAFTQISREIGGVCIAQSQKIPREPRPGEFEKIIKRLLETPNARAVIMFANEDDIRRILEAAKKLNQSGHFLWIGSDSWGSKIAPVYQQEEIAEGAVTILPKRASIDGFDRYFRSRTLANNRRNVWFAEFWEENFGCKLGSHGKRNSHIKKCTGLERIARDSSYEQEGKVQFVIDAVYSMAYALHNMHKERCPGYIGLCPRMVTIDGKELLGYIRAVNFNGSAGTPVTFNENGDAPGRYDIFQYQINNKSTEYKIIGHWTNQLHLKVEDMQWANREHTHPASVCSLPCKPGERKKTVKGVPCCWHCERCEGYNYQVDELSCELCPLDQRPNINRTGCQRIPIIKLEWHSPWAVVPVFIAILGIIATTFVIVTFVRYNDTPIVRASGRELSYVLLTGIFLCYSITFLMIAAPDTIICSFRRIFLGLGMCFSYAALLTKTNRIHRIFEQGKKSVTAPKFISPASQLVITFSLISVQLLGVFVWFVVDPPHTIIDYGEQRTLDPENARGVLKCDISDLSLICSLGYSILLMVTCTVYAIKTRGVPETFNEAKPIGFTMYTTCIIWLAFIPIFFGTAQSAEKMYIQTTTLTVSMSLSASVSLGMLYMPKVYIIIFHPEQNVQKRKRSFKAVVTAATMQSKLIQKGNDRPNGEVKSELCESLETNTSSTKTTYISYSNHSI
Turning to `O=C(C1CC(c2cccc(Br)c2)=NO1)N1CCc2ccccc2C1` (stereo not drawn), the z-score is -0.791.

In the case of `Cc1ccc(SCc2ccc(C(=O)Nc3cccnc3)cc2)cc1`, the z-score was -0.13.

As for `O=C(OCCNC(=O)c1cc2ccccc2oc1=O)c1cccnc1`, the z-score is -0.413.

In the case of `O=C(NCCN1CCN(C(=O)C(c2ccccc2)c2ccccc2)CC1)C(=O)Nc1ccccc1`, the z-score turned out to be 0.133. The same measure for `CCC(C)OC(=O)C1C(c2ccccc2)C(C(=O)O)C1c1ccccc1` (stereo not drawn): -0.178. The same measure for `Cc1ccc(-c2nnc(CSc3nnc(COc4cccc5ccccc45)n3-c3ccccc3)o2)cc1`: -0.172.

For the compound `Cc1ccc(-c2cc(-c3n[nH]c(=S)o3)c3ccccc3n2)cc1`, the z-score is active: 8.6.

Take `c1ccc(-c2csc3nnc(SCc4ccc5c(c4)OCCO5)n23)cc1`: the z-score is -0.984. `CCN1CCN(c2cc(C)c3cc(NC(=O)c4ccc5c(c4)OCO5)ccc3n2)CC1`: the z-score was -0.805. In the case of `COc1ccc(CNc2cccc(F)c2)cc1Br`, the z-score was -0.144.

`Nc1c2c(nc3ccccc13)CCC2` showed a z-score of 1.23. In turn, `O=C(Nc1c(Cl)cccc1Cl)c1cc(=O)n(Cc2ccccc2)c(=O)[nH]1` gave a z-score of 0.0378.

On to `COc1ccc(C(C)=O)cc1CSc1nc2ccccc2o1`, for which the z-score is -0.0585. For `Cc1ccc(C)c(C(=O)c2c(C)nc3sccn23)c1`, the z-score is active: -4.12. For `CCOc1ccc(N2CC(C(=O)Nc3ncccc3C)CC2=O)cc1` (stereo not drawn) the value was 0.194; for `O=C(/C=C/c1cccc([N+](=O)[O-])c1)NCCSCc1ccc(Cl)cc1Cl`, -0.000138. `Cc1ccc(NC(=O)CSc2nnc(NC(=O)CN3CCOCC3)s2)cc1`: the z-score was -0.125.

Take `CC1CN(C(=O)CSc2nnc3c(Cl)cc(Cl)cn23)CC(C)O1` (stereo not drawn): the z-score was -0.362.

Take `COCCNC(=O)C(OC(=O)CC1Sc2ccccc2NC1=O)c1ccncc1` (stereo not drawn): the z-score is -0.574. Regarding `O=C(CSc1ccccc1)NCc1cccnc1`, the z-score was -0.103. As for `CCOc1ccccc1N(C(=O)CNS(=O)(=O)c1ccccc1)C(CC)C(=O)NCc1ccco1` (stereo not drawn), the z-score is -0.997. For the compound `O=C(NCC1CCCO1)C1CCCN1C(=O)NC1CCCCC1` (stereo not drawn), the z-score is -0.138. `O=C(NCc1cccs1)c1ccccc1C(=O)NCc1cccs1`: the z-score was -0.214. As for `O=C(O)Cc1ccc(C(=O)c2cccs2)s1`, the z-score is -0.271. Compound `CCCCN1CC(C(=O)NC2CCCCC2)CC1=O` (stereo not drawn) displayed a z-score of 0.573. `COc1ccc2nc(NC(=O)C(NS(=O)(=O)c3cccc4nsnc34)C(C)C)sc2c1` (stereo not drawn) gave a z-score of 0.032. For `Cc1ccnc2nc(C(=O)NC3=NCCS3)nn12` the value was 0.119. Regarding `O=C1CSC(=Nc2ccccc2)N1`, the z-score is -0.108. For `CCOc1ccc(C(=O)N(CN2CCCC2=O)c2ccccc2)cc1` the value was 0.0717. For `O=C(Nc1nccs1)c1ccc(COc2ccc(Cl)cc2)o1` the value was -0.0268. As for `COc1ccc(C(=O)CN(C(=O)c2ccc(Cl)cc2)N2C(=O)c3ccccc3C2=O)cc1`, the z-score was -0.126. In turn, `COC(=O)Cc1c(C)c2ccc(OC(=O)c3ccco3)cc2oc1=O` had a z-score of 0.417. Consider `CCOc1ccc(NC(=O)CSc2nnc(CCNC(=O)c3ccc(OC)cc3)n2CC)cc1`, for which the z-score is -0.0739. Compound `Cn1nc(C(F)(F)F)c(/C=N/OC(=O)c2ccccc2)c1SCc1ccccc1Cl` came in with a z-score of 0.189. For `Cc1ccc(NC(=S)NCCc2ccc(F)cc2)c(C)c1` the value was -0.233.

With `O=C(CCCNC(=O)/C(=C\c1ccccc1F)NC(=O)c1ccccc1)OCc1ccccc1`, the z-score was -0.248.

Turning to `CCOC(=O)CSc1nnc(NCC(=O)OC)c(=O)[nH]1`, the z-score is -0.346.

For `O=C(Nc1ccccn1)NC1CCCCC1`, the z-score was -0.444. As for `Cc1ccc(S(=O)(=O)CCc2nnc(NC(=O)C3CCCO3)s2)cc1` (stereo not drawn), the z-score is -0.334. With `CCn1c2ccc(OC)cc2c2nc3ccccc3nc21`, the z-score is -0.632. Regarding `O=C(CCSc1ccc(Cl)cc1)c1cccs1`, the z-score was found to be 0.538. Consider `Cc1noc(C)c1COc1cccc(C(=O)Nc2ccc(C#N)cc2)c1`, for which the z-score was -1.78. `COc1ccc(C(=O)CSc2nnc(-c3ccc(C)cc3)o2)cc1` came in with a z-score of 2.18. The compound `O=C(c1ccco1)N1CCN=C1SCc1cccc(Cl)c1` registered a z-score of 0.782. For `O=C(NCCO)c1ccc2c(c1)S(=O)(=O)c1ccccc1C2=O` the value was -1.34.

Turning to `O=[N+]([O-])c1ccc(-c2cc(-c3ccc(Cl)cc3)n[nH]2)cc1`, the z-score is -0.0692. Turning to `COc1cc(C(=O)Nc2nc3ccccc3[nH]2)cc(OC)c1OC`, the z-score was -0.435.

In turn, `Cc1ccc2c(c1)CCCN2C(=O)c1ccncc1` registered a z-score of 0.255. For `CCOC(=O)CCC(=O)NCc1ccc2c(c1)cc(C)n2C`, the z-score is -0.28.

`CCCOc1ccc(C(CC(=O)O)NC(=O)C23CC4CC(CC(C4)C2)C3)cc1` (stereo not drawn): the z-score is -0.264. In turn, `CCS(=O)(=O)NCC(c1cccnc1)N1CCN(c2ccc(F)cc2)CC1` (stereo not drawn) yielded a z-score of 0.351. Regarding `CCOC(=O)c1c(NC(=O)CN2CCOCC2)sc(C(=O)NC)c1C`, the z-score is -0.161. The same measure for `O=C(CCN1C(=O)C2C3C=CC(C3)C2C1=O)NCCc1ccccc1Cl` (stereo not drawn): 0.0144; for `CCn1c(COc2cccc3cccnc23)nnc1SCC(=O)O`: -0.125.

With `COc1cc(NC(=O)c2ccc3c(=O)n(Cc4ccco4)c(=S)[nH]c3c2)cc(OC)c1OC`, the z-score is -0.49. Regarding `Cc1nn(-c2ccccc2)c(C)c1/C=N/NC(=O)CSc1nnc(-c2ccccc2)n1-c1ccc(Cl)cc1`, the z-score stood at 0.0544. Regarding `CCn1c(=O)c(C(=O)NNS(=O)(=O)c2ccc(Cl)cc2)c(O)c2ccccc21`, the z-score came out at 0.416. In the case of `Cc1ccc(Cl)c2c1NC(=O)C2(O)CC(=O)c1ccccc1O` (stereo not drawn), the z-score is -0.23. In turn, `C=CCCCCCCCCC(=O)NNC1=CC(=O)CC(C)(C)C1` showed a z-score of 0.774. As for `O=c1[nH]c(Cc2ccccc2)nc2scc(-c3ccccc3)c12`, the z-score was -0.165. With `O=[n+]1c2c(n([O-])c3ccccc31)CCC2`, the z-score is -0.449.

In turn, `CC(C)(C)C(=O)NC1CCN(S(=O)(=O)c2ccc(C(F)(F)F)cc2)CC1` had a z-score of 0.039.

`CCOC(=O)c1c(NC(=S)NC(=O)/C=C/c2cccs2)sc(C)c1C`: the z-score is -0.183.

Regarding `Cc1cnc(N)c2c(=O)oc3ccccc3c12`, the z-score is -0.0227. For `CC(Oc1ncnc2ccccc12)C(=O)Nc1cccc(S(=O)(=O)N2CCOCC2)c1` (stereo not drawn) the value was -0.0441.

`COCC(=O)NCc1ccc2c(c1)OCO2` displayed a z-score of 1.71. Regarding `COc1cc(Nc2ccccc2Cl)c([N+](=O)[O-])nc1[N+](=O)[O-]`, the z-score was -0.191. Consider `CC(C)OC(=O)CSc1nnc(Cc2ccccc2)n1Cc1ccco1`, for which the z-score is -0.4. As for `Cc1ccc(NC(=O)Cn2cnc3sc(C(=O)NCCN(C)C)c(C)c3c2=O)cc1Cl`, the z-score was -0.225. For `Cc1ccc(-c2cc(NC(=O)CCl)n(-c3ccccc3)n2)cc1` the value was 0.695; for `NC(=O)NOCc1ncc(C(F)(F)F)cc1Cl`, 0.153. `COc1ccc(OC)c(N(CC(=O)N2CCc3ccccc3C2)S(C)(=O)=O)c1`: the z-score is -0.145.

For the compound `CCOC(=O)c1c(/N=C/c2cccc(C)c2O)sc2c1CCN(C)C2`, the z-score is -0.105.

Take `COC(=O)c1ccccc1NC(=O)CSc1nc2ccccc2c(=O)[nH]1`: the z-score is -0.159. Take `COC(=O)C1=C(C)NC(=O)NC1c1ccsc1` (stereo not drawn): the z-score is -0.413.

In turn, `O=C(Nc1ccc(N2CCN(C(=O)c3ccccc3)CC2)cc1)c1ccc2c(c1)OCO2` came in with a z-score of 0.351. For `CN1CCN(CCC(=O)Nc2ccc3c(c2)OCO3)CC1` the value was 0.213; for `CN(CC(=O)Nc1ccccc1Cl)C(=O)COC(=O)CNC(=O)c1ccc(Br)o1`, 0.0164; for `Cc1ccc(NS(=O)(=O)c2ccc(NC(=O)c3cccc(NC(=O)C(C)C)c3)cc2)cc1`, -0.312. As for `O=C(Nc1ccccc1)c1nnn(Cc2ccccc2)c1NC(=O)C(F)(F)F`, the z-score was -0.0815.

Regarding `Nn1c(SCCOc2ccccc2)nnc1-c1cccnc1`, the z-score came to 0.653. Regarding `CC(C)CNC(=O)c1cccc(NC(=O)CSc2ccccc2)c1`, the z-score was -0.745. The same measure for `O=C(Nc1ccc(N2CCN(C(=O)c3ccco3)CC2)cc1)c1cccc(F)c1`: 0.81; for `O=C(Cc1ccccc1F)Nc1ccc(Cl)nc1`: 0.217. Take `Cc1cc(N(C(=O)c2ccco2)C(C(=O)NC2CCCCC2)c2ccccc2)ccc1-n1cnnn1` (stereo not drawn): the z-score was -0.0693. The same measure for `COc1cccc(-n2nnnc2SCC(=O)Nc2cccc(C)n2)c1`: -0.175; for `O=C(NCc1ccc(Cl)cc1)c1ccc(OCC2CCCO2)cc1` (stereo not drawn): 1.72.

On to `Cc1cccc(NC(=S)NNC(=O)c2ccccc2Br)c1`, for which the z-score was found to be 0.847. As to `CC1Cc2ccccc2N1C(=O)CSc1nnc(-c2ccccc2)c(-c2ccccc2)n1` (stereo not drawn), the z-score was -0.141. On to `COc1ccccc1N1CCN(C(c2ccc(Cl)cc2)c2nnnn2C(C)(C)C)CC1` (stereo not drawn), for which the z-score is -0.375. For `Cc1ccc2nc(NC(=O)c3cccc(-c4cc5ccccc5oc4=O)c3)sc2c1`, the z-score is -0.18. In turn, `CC(=O)N1CCN(C2=NC(=O)C(=C3CCCCC3)S2)CC1` gave a z-score of 0.29. As to `COC(=O)Nc1ccc(S(=O)(=O)N(CCO)CCO)cc1`, the z-score was 0.562. Turning to `CC(=O)N1CCN(Cc2nc3cc(NS(C)(=O)=O)ccc3n2C)CC1`, the z-score is -0.158. For `Cc1nc(SCC(=O)Nc2ccccc2)c2oc3ccccc3c2n1` the value was 0.0589. The compound `Cn1c(SCC(=O)Nc2ccc(N3CCOCC3)cc2)nnc1-c1ccccc1` gave a z-score of 0.0728.

Turning to `COc1cc(S(=O)(=O)Nc2ccc(C)cc2)ccc1NC(=O)c1ccncc1`, the z-score came out at 0.0477. The same measure for `COc1cc(N=CC2=C(O)c3ccccc3C2=O)cc(OC)c1`: -0.168. `CCCCNC(=O)c1onc(CSc2ccccc2F)c1C(=O)O`: the z-score is -0.281. For the compound `O=[N+]([O-])c1ccccc1Oc1ccccc1Cl`, the z-score is -0.0419. In the case of `CCOC(=O)c1c(C)[nH]c(C(=O)CSc2ccc(Cl)cc2)c1C`, the z-score is 0.24. Take `CC(C)CCNC(=O)NC(=O)Cn1cc(C(F)(F)F)ccc1=O`: the z-score is -0.327. As for `CC(C)CN1C(=S)SC(C)(C)C1n1oc(=O)n(-c2ccccc2)c1=O` (stereo not drawn), the z-score is -0.0885.

Take `COc1ccc(S(=O)(=O)N2CCc3ccccc3C2)cc1OC`: the z-score is -0.577. For `COc1ccc(NC(=O)Cc2c(O)c3ccccc3[nH]c2=O)cc1` the value was -0.337; for `CCNC(=O)OCC12CC3CC(CC(C3)C1)C2`, -0.0256; for `O=C(O)CCN1C(=O)c2ccccc2C1=O`, 0.398. In turn, `COc1cc(C(=S)N2CCCC2)cc(OC)c1O` returned a z-score of 0.304. For `Clc1ccc(OCCn2cnc3ccccc32)cc1`, the z-score was -0.548. For the compound `COc1ccccc1C(=O)Nc1nc(-c2cccs2)c(NC(C)=O)s1`, the z-score was -0.217. Regarding `CCN1CCS/C1=C/C=C/C1=[N+](CC)CCS1`, the z-score was -0.00185. The same measure for `CCN(CC)C(=O)CSc1nnc(NC(=O)CCc2ccccc2)s1`: -0.515; for `CCCc1cc(C(=O)Nc2cccnc2)no1`: -0.469.
